Where “and” joins values, the source holds several entries; their conditions need not be identical. Equal entries are not always repeated. In all, about 420,000 compounds went through this assay and about 64,000 (15%) were called active. The shares of active, inactive and inconclusive entries below differ from those in the screen. Calls follow the shape of the dose curve; as a rule, active = well fitted inhibition curve with a large enough effect; inconclusive = small, poorly fitted or top-dose-only effect; inactive = flat fitted curve, though single readings scatter. Potencies of inconclusive entries are doubtful fits and often do not repeat.
Experiment: qHTS for Inhibitors of human tyrosyl-DNA phosphodiesterase 1 (TDP1): qHTS in cells in absence of CPT; also: nearly all actives have a fitted effect of over 55% in size
Conditions: DT40 Tdp1-/- hTDP1 cells, no CPT, ATP luminescence, 48 h; activity change, negative = growth inhibition: at 46.2 µM (top of the series) unless noted
How it was run: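 Compound effects on proliferation are scored in DT40 Tdp1-/-;hTDP1 cells in the absence of CPT. ATP levels (CellTiter-Glo luminescence) are recorded after a ≥48 hr, 37 °C incubation.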
% is scaled to controls: 0 for no effect and ±100 for the full control effect; potency is read from the fitted curve at half-maximal effect; tags tell the direction and shape of the fitted curve.

Row | SMILES | Potency | activity change, negative = growth inhibition
1 | Cc1ncc(CO)c(CO)c1OCC(O)CN1CCN(c2ccc(F)cc2)CC1 (stereo not given) | inconclusive: 23.1 µM [inhibitor, single point] | –
2 | Cc1onc(-c2c(Cl)cccc2Cl)c1NC(=O)NC1CCSC1 (stereo not given) | – | inactive: -13.8%
3 | CC1C(=O)N(Cc2cn(CCC3OCCCO3)nn2)CCS(=O)(=O)N1Cc1ccc(-c2cccc(CO)c2)cc1 (stereo not given) | inconclusive: 16.4 µM [inhibitor, partial curve] | –
4 | CCn1c(SCc2ccccc2F)nc(=O)c2c(C(=O)OC)cc(C3CC3)nc21 | inconclusive: 29.1 µM [inhibitor, single point] | –
5 | O=C(NCc1ccncc1)C1CCN(S(=O)(=O)c2ccccc2)CC1 | – | inactive: 22.3%
6 | Cc1ccc(C)c(N(CC(=O)NC2CCCC2)C(=O)c2csnn2)c1 | – | inactive: 9.01%
7 | Cc1cccc(N2CCN(C(=O)c3ccc(NC(=O)c4nsc5ccccc45)cc3)CC2C)c1 (stereo not given) | active: 6.51 µM | –
8 | CCc1ccccc1NC(=O)CSc1nc2ccccc2n1CC(=O)N1CCCC1 | – | inconclusive: -32.4% [inhibitor]
9 | CCn1c(SCC(=O)NCCOc2ccccc2)nc2ccccc2c1=O | inconclusive: 29.1 µM [inhibitor, single point] | –
10 | CC1(C)CC(=O)C(C=Nc2ccc(O)c(N=CC3=C(O)CC(C)(C)CC3=O)c2)=C(O)C1 | inconclusive: 18.4 µM [inhibitor, single point] | –
11 | Cc1ccc2nc(SCC(=O)N3CCOc4ccc(CN5C[C@@H](C)O[C@@H](C)C5)cc4C3)[nH]c2c1 | inconclusive: 16.4 µM [inhibitor, single point] | –
12 | Cc1ccc([C@H]2C[C@@H](O)[C@H](n3cc(C4CC4)nn3)CN2C(=O)c2cccs2)cc1 | active: 20.6 µM | –
13 | COc1ccc(C2=NCCn3nc4cc(OC)ccc4c32)cc1 | inconclusive: 23.1 µM [inhibitor, single point] | –
14 | O=C(NCc1ccccc1Cl)C1CCN(S(=O)(=O)N2CCCCCC2)CC1 | active: 17.8 µM | –
15 | Cc1cccc(N2CC(C(=O)NCC3COc4ccccc4O3)CC2=O)c1C (stereo not given) | – | inactive: 5.32%
16 | Clc1ccc(/C=C/c2ccc3ccccc3n2)cc1Cl | active: 3.55 µM | –
17 | Cc1[nH]c2ccc(C(=O)OC(C)C(=O)N(C)C3CCCCC3)cc2c1C (stereo not given) | inconclusive: 23.1 µM [inhibitor, single point] | –
18 | COc1ccccc1N(CC(=O)Nc1cccnc1)S(=O)(=O)c1ccccc1 | – | inactive: -6.74%
19 | N#C/C(=C(/O)COc1ccccc1)c1nnc2n1CCCCC2 | – | inactive: -2.76%
20 | Cc1ccc(N2CCN(C(=S)Nc3ccccc3)CC2)cc1 | inconclusive: 8.2 µM [inhibitor, partial curve] | –
21 | CCOC(=O)C1CCCN(C(=O)Cn2ncc3c([nH]c4ccc(C)cc43)c2=O)C1 (stereo not given) | inconclusive: 29.1 µM [inhibitor, single point] | –
22 | Cc1nn(-c2ccccc2)c(Cl)c1C1C(C#N)=C(N)Oc2n[nH]c(C)c21 (stereo not given) | inconclusive: 20.6 µM [inhibitor, single point] | –
23 | Cc1nn(CC(N)=O)c(=O)c2ccccc12 | inconclusive: 20.6 µM [inhibitor, single point] | –
24 | CC(C)(C)c1cc(NC(=O)COc2ccc(Br)cc2)n(-c2ccccc2)n1 | inconclusive: 14.6 µM [inhibitor, partial curve] | –

Row | SMILES | Potency | activity change, negative = growth inhibition
25 | O=C(CN1C2CCCC1CC(NC(=O)C1CCCCC1)C2)Nc1ccccc1C(F)(F)F (stereo not given) | active: 14.6 µM | –
26 | Cc1ccc(C2CC(c3cccc(Br)c3)n3nc(N)nc3N2)cc1 (stereo not given) | inconclusive: 16.4 µM [inhibitor, single point] | –
27 | O=C(Nc1ccc(F)cc1)c1ccccc1F | – | inactive: -15.7%
28 | COCc1nnc(NC(=O)c2ccc(S(=O)(=O)N(C)Cc3ccccc3)cc2)o1 | inconclusive: 20.6 µM [inhibitor, single point] | –
29 | Cc1cc(C(=O)Nn2cnc3ccccc3c2=O)ccc1[N+](=O)[O-] | – | inactive: -17.7%
30 | Cc1cccc(C)c1OCC(=O)NCc1nnc(SCC(=O)NC2CCCCC2C)n1C (stereo not given) | – | inactive: -7.7%
31 | CCCCn1c(N)c(N(CCOC)C(=O)c2oc3c(Cl)cccc3c2C)c(=O)[nH]c1=O | – | inactive: -13.2%
32 | CC1CCCN(CCCNC(=O)c2ccc3c(c2)N(Cc2ccc(F)cc2)C(=O)c2ccccc2S3=O)C1 (stereo not given) | inconclusive: 29.1 µM [inhibitor, single point] | –
33 | CCOC(=O)NC(=O)CSc1nnc(C)s1 | – | inactive: -14.3%
34 | CCN(C(=O)COC(=O)CCOc1ccccc1)c1c(N)n(Cc2ccccc2)c(=O)[nH]c1=O | inconclusive: 6.51 µM [inhibitor, full curve, poor fit] | –
35 | O=C(CN1CCN(Cc2cccc3ccccc23)CC1)NCCc1ccccc1 | inconclusive: 20.6 µM [inhibitor, partial curve] | –
36 | Cc1ccccc1OCc1nc2ccccc2n1C | inconclusive: 16.4 µM [inhibitor, single point] | –
37 | CN(Cc1ccc(F)cc1)C(=O)c1cccc(OC2CCN(C3CCCC3)CC2)c1 | – | inactive: 0.949%
38 | CCOC(=O)c1cnc2c(OC)cccc2c1Nc1ccc2c(c1)OCCO2 | inconclusive: 20.6 µM [inhibitor, single point] | –
39 | O=S1(=O)CCOC[C@H](CC2CCCCC2)N1Cc1ccccc1 | inconclusive: 22.4 µM [inhibitor, single point] and inconclusive: 29.1 µM [inhibitor, single point] | –
40 | CCOc1ccc(CNc2ncc(-c3ccccc3)n2C)cc1 | inconclusive: 29.1 µM [inhibitor, single point] | –
41 | O=C(CSC1CCCCC1)Nc1ccccc1Br | inconclusive: 18.4 µM [inhibitor, single point] | –
42 | CCCN1CC(=O)N2C(c3cccc(OC)c3OC)c3[nH]c4ccccc4c3C[C@H]2C1=O (stereo not given in full) | inconclusive: 29.1 µM [inhibitor, single point] | –
43 | CSc1nc2nccc(-c3ccc4c(c3)OCO4)n2n1 | inconclusive: 0.92 µM [inhibitor, full curve] | –
44 | COCCn1c(SCC(=O)Nc2nnc(C)s2)nnc1-c1cc2ccccc2cc1O | – | inactive: -8.26%
45 | CCN(CC)C(=O)c1ccc(S(=O)(=O)Cc2ccc(C)cc2)c([N+](=O)[O-])c1 | inconclusive: 29.1 µM [inhibitor, partial curve, poor fit] | –
46 | COc1ccc(NC(=S)N2CCCC2)c(OC)c1 | – | inactive: -14.2%
47 | COc1ccc(N2CCN(C(=S)NC(=O)c3cccs3)CC2)c([N+](=O)[O-])c1 | inconclusive: 29.1 µM [inhibitor, single point] | –
48 | O=C(CN1C(=O)CCS(=O)(=O)c2ccccc21)NCc1ccc(F)cc1 | – | inactive: -17.2%

Row | SMILES | Potency | activity change, negative = growth inhibition
49 | CC(OC(=O)CCCc1c[nH]c2ccccc12)C(=O)Nc1ccc(S(N)(=O)=O)cc1 (stereo not given) | inconclusive: 18.4 µM [inhibitor, single point] | –
50 | CCOC(=O)[C@]12CCC=C1N(Cc1ccccc1)C(=O)[C@H](CC(=O)N1CCCCC1)C2 | inconclusive: 23.1 µM [inhibitor, single point] | –
51 | Nc1nnc(-c2ccccc2)c(-c2ccccc2)n1 | inconclusive: 23.1 µM [inhibitor, single point] | –
52 | Cn1c(SCc2ccc(Br)cc2)nnc1-c1cccs1 | inconclusive: 20.6 µM [inhibitor, single point] | –
53 | O=C(c1ccc(Cl)cc1)N1CCc2c([nH]c3ccccc23)C1C(F)(F)F (stereo not given) | inconclusive: 29.1 µM [inhibitor, single point] | –
54 | Cc1ccc(C(=O)Nc2cc(Cl)ccc2Oc2ccccc2)cc1[N+](=O)[O-] | inconclusive: 20.6 µM [inhibitor, single point] | –
55 | COc1cccc(-c2nc(CS(=O)(=O)CC(=O)NC3CCCCC3C)c(C)o2)c1 (stereo not given) | – | inactive: -28.2%
56 | CC1CCCC(C)N1C(=O)COC(=O)CCC(=O)c1ccc(F)cc1 (stereo not given) | inconclusive: 16.4 µM [inhibitor, single point] | –
57 | O=C(Nc1ccc(OCc2ccccc2)cc1)Nc1nnc([C@H]2C[C@H](O)[C@@H](CO)O2)s1 | inconclusive: 20.6 µM [inhibitor, single point] | –
58 | COc1cc2[nH]c(=O)n(CCCC(=O)NCc3ccccc3)c(=O)c2cc1OC | – | inactive: -9.26%
59 | CCc1ccc(NC(=O)CCCc2nc(-c3ccco3)no2)cc1 | inconclusive: 20.6 µM [inhibitor, single point] | –
60 | O=C(C1CCC1)N1CCN(c2ccc(C(F)(F)F)cc2[N+](=O)[O-])CC1 | inconclusive: 29.1 µM [inhibitor, single point] | –
61 | CCc1cc(C(=O)N=Nc2c(O)[nH]c3c(Br)cc(Br)cc23)c2ccccc2n1 | inconclusive: 29.1 µM [inhibitor, single point] | –
62 | O=C(Cc1cccs1)Nc1nc2c(s1)CCCC2 | inconclusive: 6.51 µM [inhibitor, partial curve] | –
63 | CNC[C@@H]1Oc2ccc(NC(=O)Nc3c(C)noc3C)cc2CC(=O)N([C@H](C)CO)C[C@H]1C | – | inactive: 6.09%
64 | Cc1ccc(-c2n[nH]c(=S)n2/N=C\c2ccco2)cc1 | inconclusive: 18.4 µM [inhibitor, single point] | –
65 | COc1ccccc1/C=C/c1nc2ccccc2c(=O)o1 | – | inactive: -19%
66 | Cn1cccc1/C=N/NC(=O)c1cccc(OC(F)(F)C(F)F)c1 | – | inactive: -26.8%
67 | COc1ccccc1OCCC(=O)OCC(=O)Nc1ncc(Cl)cc1Cl | – | inactive: 1.01%
68 | COc1ccc(-c2cc(C(=O)Nc3ccc(Br)cc3)no2)cc1 | – | inactive: -19.8%
69 | O=C(COc1ccc(Br)cc1)Nc1ccccc1C(=O)NC1CC1 | inconclusive: 29.1 µM [inhibitor, single point] | –
70 | O=C(CCc1ccccc1)NNc1cc(N2CCCCC2)nc(N2CCCCC2)n1 | inconclusive: 18.4 µM [inhibitor, single point] | –
